# Data published in ChEMBL document CHEMBL4888484, “Replenishing the malaria drug discovery pipeline: Screening and hit evaluation of the MMV Hit Generation Library 1 (HGL1) against asexual blood stage Plasmodium falciparum ,using a nano luciferase reporter read-out” (2022).
# The campaign covered roughly 150,000 compounds. About 540 (0.36%) showed an effect of 50% or more. This is one part of the list.
# System: Plasmodium falciparum
# Experiment: Primary screen in NF54 nanoGlo assay, in single point, at 2uM, 72h; a lower Z score goes with more inhibition
# Type: functional, Erythrocyte
# Conditions: timepoint 72 hour
SMILES,% Inhibition [%],Z score
O=C(N[C@@H](CCO)C1CCCC1)c1cncnc1-c1ccccc1,-1,0.13
CCn1nc(CC(C)C)cc1C(=O)Nc1ccccc1CN1CCCC1,-13,1.32
Cc1n[nH]c([C@@H]2CN(Cc3cn(C(C)(C)C)nn3)CCO2)n1,4,-0.74
Cc1cc(CC(=O)Nc2nn(Cc3ccccc3)c3cc(OC(C)C)ccc23)on1,-3,0.38
CS(=O)(=O)N1CCC[C@H](Nc2ncccn2)C1,10,-1.56
CCOCC(=O)Nc1cccc(-c2nncn2C)c1C,-10,1.29
C[C@@H](c1nnnn1C1CC1)N1CCC(c2nccs2)CC1,-4,0.65
COc1cccc(CN2CC[C@@]23CCCN(C(=O)OC(C)(C)C)C3)c1OC,-3,0.57
CCNC(=O)[C@@H]1C[C@@H](NC(=O)c2cnc(C)s2)CN1C(=O)C1CCCC1,10,-1.78
O=C(NCc1nnc2ccccn12)N1CCN(c2ccncc2Cl)CC1,2,-0.31
COc1ccc2c(c1)CCc1c(C(=O)NCC3CCN(Cc4ccccc4F)CC3)n[nH]c1-2,-19,1.7
CN(Cc1ccco1)C(=O)c1c[nH]nn1,2,-0.3
CC(=O)N[C@@H]1c2ccccc2C2(CCN(C(=O)c3ccc4cc[nH]c4c3)CC2)[C@H]1OCc1ccccc1,14,-1.78
CCN(CC)CC1(NC(=O)c2cccc(C)c2F)CC1,-7,1.37
O=C(CN1CCN(Cc2ccccc2Cl)CC1)Nc1nccs1,-1,0.19
N#Cc1ccnc(N2CC[C@@]3(CCCN(CC4CCCCC4)C3=O)C2)c1,-9,1.85
OCCn1nc(-c2ccco2)nc1CN1CCOCC1,-10,1.83
COC[C@H](C)n1cc(C(=O)NCc2cnc(C)o2)c(C)n1,-3,0.27
CCc1ccc(CC(=O)N[C@H]2CCN(c3ncc[nH]c3=O)C2)nc1,-8,1.06
Cc1ccc([C@H]2CN(Cc3cccc4nonc34)C[C@@H]2N(C)C)cc1,-5,0.61
CC(C)[C@@]1(O)CN(CC(=O)N2CCCCC2)C[C@@H]1C,-12,2.44
CCCCS(=O)(=O)N1Cc2c(C(=O)NC3CC3)nn(C)c2C1,-11,1.35

SMILES,% Inhibition [%],Z score
CC(C)CN1CC[C@H](c2nnc(Cc3ccccc3)o2)C1,-7,1
COCc1ccc(CNCc2cc3cc(Cl)c(Cl)cc3[nH]2)cc1,-13,1.44
CCc1csc(CCNC(=O)[C@@H](C)Cn2cccn2)n1,-11,1.12
CCN(Cc1nc(-c2ccc(C)c(OC)c2)no1)[C@H]1CCOC(C)(C)C1,-16,2.04
Cc1ccc(C#N)c(N2CCC[C@H](c3cc(N4CCOCC4)nc(C)n3)C2)n1,1,-0.11
Cc1ccc2c(c1)cc(S(=O)(=O)c1ccccc1)c(=O)n2CC(=O)NCc1ccc2c(c1)OCO2,2,-0.36
NC(=O)CCNS(=O)(=O)c1ccc(Cl)cc1,-19,1.74
CNC(=O)c1c(C)n(C)c2cc(C)cc[n+]12,-9,1.69
Cc1nc(N2CCOCC2)ncc1-c1cc(=O)[nH]c(N2CCC(Cc3ccccc3)CC2)n1,-19,2.68
Nc1c(-c2ccccn2)nsc1C(=O)NC1CCCC1,-2,0.23
CC(Cc1ccsc1)NC(=O)N1CC(C)OC(C)C1 (stereo unspecified),-10,2.2
CCOC(=O)c1nnn(Cc2cc(C)on2)c1C,1,-0.07
Cc1cc(C)nc(O[C@H]2CC[C@H](NC(=O)N3CCOCC3)CC2)n1,-1,0.14
CC(C)c1nncn1C1CCN(S(=O)(=O)c2cccc(Cl)c2)CC1,1,-0.12
CC(=O)N1CCN(c2nc(-c3ccccc3Cl)c3c(N)n(C)nc3n2)CC1,0,-0.05
COc1cccc(NC(=O)Nc2ccccc2NC(=O)c2ccccc2Cl)c1,-5,0.57
CCCOc1ccc(CNC(=O)c2cc(S(N)(=O)=O)oc2C)c(C)c1,0,0.06
Cc1cccc2c(=O)n(CC[C@H]3CCNC3=O)ccc12,-15,2.79
O=C(NCc1nccs1)c1nn(Cc2ccccc2)c2c1CN(C(=O)c1ccccc1)CC2,0,0.01
O=C(Nc1ccccc1)c1nnc(C(=O)N2CCC[C@H](C(=O)NCCCN3CCOCC3)C2)s1,2,-0.33
O=C(CN(C(=O)c1ccc(F)cc1)C1CC1)Nc1nc(-c2ccccc2)cn1-c1ccc(F)c(Cl)c1,-16,2.3
